According to PubChem BioAssay (NCATS):
Some of the results follow. The main result of the screen is listed elsewhere. These columns were measured beside it and carry no call. Compounds called inactive in the main read-out are mostly missing here. Potencies come from curve fits of mixed quality, noted in brackets.

Test: Cell-based coincidence reporter assay to measure PMP22 gene transcription in S16 Pmp22-F2sN cells - Confirmatory screen (AID 1508646)
Conditions: S16 Schwann cells Pmp22-F2sN, dual luciferase, 24 h
In short: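 Coincidence reporter read as sequential FLuc then NLuc luminescence (Nano-Glo Dual-Luciferase, 10 min each). Engineered S16 Pmp22-F2sN Schwann cells, 500-1,000 per well in DMEM/10% FBS, were exposed to compounds for 24 h, 37C.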

[1] = measured here: FLuc reporter channel
[2] = measured here: NLuc reporter channel
Tags tell the direction and shape of the fitted curve.

With CCN1CCOC(=O)C1CC(=O)Nc1cc(Cl)ccc1C (centres undefined) the AC50 [1] was 21.7 µM [falling, partial curve] and the AC50 [2] was 24.3 µM [falling, partial curve].
In the case of CCN1CCOC(=O)C1CC(=O)Nc1cc(Cl)ccc1OC (centres undefined), the AC50 [1] was 24.3 µM [falling, partial curve] and the AC50 [2] was 27.3 µM [falling, partial curve].
In the case of CC(C)c1ccc(NC(=O)N2CCN(c3ccc(Cl)c(Cl)c3)CC2)cc1, the AC50 [1] was 27.3 µM [falling, partial curve, poor fit] and the AC50 [2] was 24.3 µM [falling, partial curve].
In the case of COc1ccccc1Nc1c2c(nc3ccc(NC(=O)c4cccc(F)c4)cc13)CCCC2, the AC50 [1] was 10.9 µM [falling, full curve] and the AC50 [2] was 12.2 µM [falling, full curve].
For COc1cc2c(cc1OC)C(COc1ccc3c(C)cc(=O)oc3c1)N(C(=O)c1ccc(C)cc1)CC2 (centres undefined), the AC50 [1] was 24.3 µM [falling, partial curve] and the AC50 [2] was 27.3 µM [falling, partial curve, poor fit].
For COc1cccc(NC(=O)N(Cc2cn(C)c3ccccc23)C2CCCCCC2)c1, the AC50 [1] was 34.3 µM [falling, single point] and the AC50 [2] was 27.3 µM [falling, partial curve].
For COc1ccc(NC(=O)c2oc3ccccc3c2NC(=O)Cc2ccc(F)cc2)c(OC)c1, the AC50 [1] was 10.9 µM [falling, full curve, poor fit] and the AC50 [2] was 10.9 µM [falling, full curve].
